The list shows a part of the results. At the low end of the ranking, values are background and their order means little. Measured with an extract: partners may take part in the binding.

The experiment concerns the target T1, HNF4alpha2 (COS-7 nuclear extract) (UniProt P41235).
T1 sequence: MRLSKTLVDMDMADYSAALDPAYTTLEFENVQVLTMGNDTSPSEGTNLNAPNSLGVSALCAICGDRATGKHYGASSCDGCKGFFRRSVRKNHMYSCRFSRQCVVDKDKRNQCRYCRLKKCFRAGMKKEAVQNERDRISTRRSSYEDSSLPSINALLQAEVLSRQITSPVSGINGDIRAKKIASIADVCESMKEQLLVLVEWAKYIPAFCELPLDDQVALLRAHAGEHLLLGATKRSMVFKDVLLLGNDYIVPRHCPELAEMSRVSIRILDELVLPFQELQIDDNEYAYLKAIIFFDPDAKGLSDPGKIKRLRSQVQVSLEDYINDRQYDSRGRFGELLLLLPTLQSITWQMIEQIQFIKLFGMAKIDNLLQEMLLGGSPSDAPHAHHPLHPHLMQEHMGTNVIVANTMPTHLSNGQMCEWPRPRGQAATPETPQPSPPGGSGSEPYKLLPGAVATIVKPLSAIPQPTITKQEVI
Description: protein-binding microarray. The settings on record: COS-7 nuclear extract on double-stranded Agilent 4x180k PBM; binding buffer, salt, pH and temperature not given; high values mean tight binding; double strand, one strand shown; sequences stand for … in …GCCTAGGGAGATTAGAGTATCGGTCGA
Turning to TCTGTCCCTGCACCCTACCCCCATACTTTA, the binding signal (log2 normalized intensity) turned out to be 3.83. The value for GAGACACCCCTGCAGAAGCGGGAGAGGCCC was -1.2; that for AGAGCTCCAGAAGAAAGGGGAGATAATGCC was -1.02; that for ATCTGACCAAGTGAACTGTGACCTGATGAC was 2.97.

Take CAAACGAGACTTTGGACTTTGGACTTGGGA: the binding signal (log2 normalized intensity) came to 10.5. To ATTCCAAGAAGAGCCAATAGTACACATCAA belongs -0.572.

For CCTCCCCATTGTAGATTCAATAATACAAGA, the binding signal (log2 normalized intensity) stood at 1.14.

Regarding AGTTTGTCTGATCTTCCTGAGGAGAGCAAA, the binding signal (log2 normalized intensity) is -1.13.

Take TTGTGTAACATCTAAGATTGGCCCTGATAA: the binding signal (log2 normalized intensity) worked out at 0.233.

Take CCAGAGAAATAGTGAGACAGACATGCGACA: the binding signal (log2 normalized intensity) is -1.12.

On to TTGTTTGTGTTTCCCTCCCTGGTATGTACT, for which the binding signal (log2 normalized intensity) worked out at 2.72. As to GAACAAGTATCCTGGTAGTGCGACAAGAAT, the binding signal (log2 normalized intensity) is -1.22.

With ATTCTACTGCCATTGATAATTCAGTTTCAT, the binding signal (log2 normalized intensity) worked out at 0.638. The value for GACCTGGCATATCTCTGTCCCTGATACCAT was 0.149; that for TTCTGATCTTTGACCTCTCCAGGGTCCTTG was 4.73. For CTTCCCCCATCCCCAACAAAGCTCTGCATC, the binding signal (log2 normalized intensity) was found to be 4.73. For AATGCTATGCTTTTATTTAACTTCTGGGGG, the binding signal (log2 normalized intensity) was -0.748. The value for CATGGGTCTCTTCCTCAGTTTGTTCTTGGG was 1.18. The value for CAAGTAAATTCCGGGGCTGGAATTTGAACC was 5.13; that for CTCCCCTCCTCCAGATGGGCTCATGTAACA was 2.61. The value for TTGCCACTAGGGGTCACTGTCACATGTCCA was 2.21; that for GAATGGACTCTGAGACCTGTGATGGTCACT was 1.43.

In the case of AGTAGCAGTTCAAAAGTTCAAAGATATGAT, the binding signal (log2 normalized intensity) was found to be 1.04. As to TCAGGCCATTTCACCTTTGCCCTGTCAGTC, the binding signal (log2 normalized intensity) was determined as 5.88. On to CACACCTCCAGCCACCCTGAAGGCTGAGCC, for which the binding signal (log2 normalized intensity) was -1.08.

In the case of AACAAATAAAGTGGATGGAGCAATTCAACA, the binding signal (log2 normalized intensity) is -0.928.

Turning to GGCCTTATAGGGCATACCCTTCCTGCTGAC, the binding signal (log2 normalized intensity) was -1.08.

Consider GCCAAGGACCGCCAAGGAAGCGATGGGCTG, for which the binding signal (log2 normalized intensity) is -1.07. To GAGTCCAGTGGGGGAGAGGGAGAATAAGGG belongs -1.11; to CTTGTTTGTGTAACTGTGGGTTCTAGGTAA, 1.75. For TCTGCTTTCAAAGCTCCAGTTCCAGGGATG, the binding signal (log2 normalized intensity) was -0.556. For GCGGTAAAGAAGCCAGCCAAATCCCACCAA, the binding signal (log2 normalized intensity) was determined as 2.06. As to CCGCAGTGGGAGAGCAAGGGTCAAGGGTCA, the binding signal (log2 normalized intensity) is 6.65. The value for GAACCTGTGTTTCCTGGATTGTGAAACACA was 0.253; that for CAATCAGCAGCAAAGTCCTGGAAGAAACCC was -1.15; that for ACTAATGCATTCCCAGCAAGTGAAGAGGAA was -1.15. With TGTGTTGGCACTTTGGACTTGAGAAGACAT, the binding signal (log2 normalized intensity) turned out to be 3.23. With TATCTAAAAGCTTATCTGCACAATGAAACT, the binding signal (log2 normalized intensity) is -1.15. To GCTGTCAGCCACCAAAGCAGCTAGCAAATA belongs -1.2; to CATTGTGTTAAAGGAATTCAGGACTTGGTA, 1.07.

For the sequence GTTATCTAATGGAGAGGATGGGGACAAAGG, the binding signal (log2 normalized intensity) came to 1.47. The value for AAGACAGGGGCTATTTCTGACCTTTGCACC was 9.65. To TAGTAGCCCTTTGTATCTTTTAAGATACAC belongs 0.084; to AGGGGTCACCTCGCTCCCCTCCTGTCAGTT, 1.51. As for TCAGCTGGGCTCGGCGCTCCGCTTACTCGG, the binding signal (log2 normalized intensity) is -1.06.

Turning to TGAAATCTAATCTCTGTAACATTCCTAGAT, the binding signal (log2 normalized intensity) was -1.15.

For AGAACAGTCTGTGACTTGATCTTTGACTGG, the binding signal (log2 normalized intensity) was found to be 3.37. The value for GCATTTCACAATAGGGTTCAAACTCCTATG was 2.05. The value for TTTCAAGGTGACCCCACGGAGCTGCCTCAC was 2.23; that for CTGAGAGAGCAGGGCCCGAGGCCTTGAGCA was -1.14; that for ATCACACTACTGGCTTTTCTGGTTCTCCAG was -0.917. Regarding TAATCTGACTTGACAGGTTTCTTGCTGAAG, the binding signal (log2 normalized intensity) is -0.717. The value for TCTAATCTCTGTAACATTCCTAGATATCAG was -1.29; that for TAAGCAATCCCTTAGGCTTTTGCACTTTAC was 2.96. Take TTAAGTGGTTCACAAACATTCCAGTGGTCC: the binding signal (log2 normalized intensity) was determined as 1.21.

As to TGTGTGTGTGTCTGTAGTTTTCGTTGTCTA, the binding signal (log2 normalized intensity) is 2.41.

For the sequence GGCCGGGGTGGTGGTTACCGGCAGAGGCTG, the binding signal (log2 normalized intensity) is -0.105. To TTCAGGCAGGAATGCTGAACAATTGATTTA belongs -1.04. To ACACTGACATCATCGCAGAAAGCTCTTTGC belongs -0.994; to TAGAATGACCCCCTGGGCTCCAATCAGGAG, 2.76. In the case of ATGAAAGTATCCAGCTCCTCTTCACACCAT, the binding signal (log2 normalized intensity) was -1.13. TGGGTGTCAGGGTTCTCAGACCACCAGCTG: the binding signal (log2 normalized intensity) was -1.2. For TTTCATTGGAAAGGCAGAGGAAAGCCCTAG, the binding signal (log2 normalized intensity) was -1.05. The value for ACAAGAGGCAAAGGCCACAGCTCAGATCAC was -1.15. The value for AGGGGTAGAAGCTGAGCAGCAATCAGCTCC was -1.06; that for AGGCAGGGACTGAGGAATCTGGCTGTGCTG was -1.04; that for CCCAGGCAATCTTCCAGTCCACAGTCCAGT was 0.72.

Take TGTTGCGTAATACAAAGGCAGCCATTGACG: the binding signal (log2 normalized intensity) is -0.702. To TCGCTCCGCCGCTAGGTGGCGGGCTGGCTC belongs -1.16; to ACACATAAACCCTGACCCTCAAGGGTCTCC, 0.628. The value for TAAACAGCTGACAATAAATTCCAGGCTGCC was -1.16; that for CCTTTTGAAGAAACCAACCCTGCCAAAGGT was 0.785.

The record behind these values is PMC10726135.
